# Screen size: about 52,000 compounds; about 4,300 (8.3%) were called active. Cut-off read from the data, not from the text of the source: active = survival mostly below about 52% (no sharp cut-off); inactive = mostly above about 56%. This is one part of the list.
# System: DeltatarO mutant
# Test: growth inhibition of S. aureus wild type versus tarO mutant, primary screen, teichoic acid synthesis inhibitors, RN4220, OD600 (AID 463173)
# Conditions: OD600, 18 h, hits give low values, screened at 18.75 µg/mL (by protocol)
row,Structure (SMILES),survival
1,CCOc1ccc(CCNc2ncnc3onc(-c4ccc(Cl)cc4)c23)cc1OCC,inactive: 60%
2,COCc1nc2cccnc2n1C1CCN(S(=O)(=O)N(C)C)CC1,inactive: 93%
3,CCOC(=O)C1NC(=O)CC1c1ccccc1 (centres undefined),inactive: 99%
4,CC(C)(C)c1ccc(Cn2c(Cc3ccccc3)nc3ccccc32)cc1,active: 0%
5,Cc1nn2c(=O)cc(CN(C)c3ccccc3)nc2s1,inactive: 135%
6,CCOC(=O)c1ccccc1NC(=O)CSc1ncc(CO)n1Cc1ccc(C)cc1,inactive: 77%
7,O=C(Cn1c(SCc2cccc(F)c2)nc2cccnc21)Nc1ccc(F)c(Cl)c1,inactive: 77%
8,O=C(NCCO)c1ccc2c(c1)OCO2,inactive: 82%
9,CC(=O)c1ccc(NC(=O)CCc2c(C)nc3c(c(C)nn3-c3ccc(C)cc3)c2C)cc1,inactive: 59%
10,COc1ccccc1NC(c1ccc(Cl)cc1)c1nnc(-c2cccc(F)c2)o1 (centres undefined),inactive: 59%
11,COc1cccc(-c2nn(C)c3sc(C(=O)NCc4cc(OC)ccc4OC)cc23)c1,inactive: 68%
12,O=C(CN1CCN(Cc2ccc(F)cc2)C1=O)NCc1ccccc1Cl,inactive: 83%
13,C=CCn1c(N)cc(=O)nc1SCC(=O)NC(C)c1ccccc1 (centres undefined),inactive: 95%
14,O=C1CCCN1CN1CCN(CN2CCCC2=O)CC1,inactive: 106%
15,COC(=O)c1ccccc1NC(=O)C1=CC(c2ccc(C)cc2)=NS(=O)(=O)N1C,inactive: 65%
16,CN(C1CCCCC1)S(=O)(=O)c1ccc(S(=O)(=O)N(Cc2ccccn2)Cc2ccco2)cc1,inactive: 68%
17,O=C(CCS(=O)(=O)c1nc(-c2cccs2)cc(C(F)(F)F)n1)Nc1ccc(OC(F)(F)F)cc1,inactive: 90%
18,COc1ccc(-c2cn3c(n2)sc2cc(C(=O)Nc4ccc(C)c(C)c4)ccc23)cc1,inactive: 64%
19,Cc1cccc(N2CCN(C(=O)CCc3nnc4n(CC(C)C)c(=O)c5ccccc5n34)CC2)c1C,inactive: 74%
20,O=C(Cc1ccccc1)N(Cc1cccnc1)c1nc2c(F)cc(F)cc2s1,inactive: 65%
21,CC(C)N(C=O)C1(C(=O)NC2CCCCC2)CCCCC1,inactive: 93%
22,CC(C)c1ccc(OCC(=O)NC(Cc2c[nH]c3ccccc23)C(=O)O)cc1 (centres undefined),active: 42%
23,CCOC(=O)c1c(C)oc2ccc(N(C(=O)Oc3ccccc3)S(=O)(=O)c3ccc(CC)cc3)cc12,inactive: 55%

row,Structure (SMILES),survival
1,O=C(Nc1cc(Cl)cc(Cl)c1)c1ccc(F)c(S(=O)(=O)N2CCc3ccccc32)c1,inactive: 74%
2,Cc1cccc(OC(=O)CSc2nnc(CNC(=O)c3ccccc3)o2)c1C,inactive: 75%
3,CCc1ccccc1NC(=O)CN(Cc1ccccc1)S(=O)(=O)c1ccc(Br)cc1,inactive: 62%
4,COc1ccc(CNC(=O)c2ccc(N3CCCC3)c(NC(=O)NCc3ccc(C)cc3)c2)cc1,inactive: 73%
5,Cc1nn2c(-c3cccc(NC(=O)c4ccccc4)c3)nnc2c2ccccc12,inactive: 86%
6,O=S(=O)(Nc1nc2n(n1)C(c1ccc(F)cc1)C=C(c1ccccc1)N2)c1ccccc1 (centres undefined),inactive: 73%
7,Cc1ccc2ncc(C(=O)Nc3ccc(F)cc3F)c(=O)n2c1,inactive: 99%
8,COC(=O)c1ccc2c(=O)n(CCCCCC(=O)NCc3ccc(Cl)cc3)c(=O)[nH]c2c1,inactive: 74%
9,CCOC(=O)c1nn(-c2ccccc2)c(=O)c(C#N)c1C,inactive: 97%
10,CCc1ccc(CNC(=O)c2ccc(NC(=O)N3CC(C)Sc4ccccc43)cc2)cc1 (centres undefined),inactive: 64%
11,Cc1cc(C)c2c(=O)cc(C(=O)Nc3ccccc3C(F)(F)F)oc2c1,inactive: 63%
12,CC(=O)c1ccc(N2CCN(c3ccc(NC(=O)c4ccc(F)cc4)cc3C(=O)O)CC2)cc1,inactive: 55%
13,Cc1cc(NC(=O)CCS(=O)(=O)c2cc3c4c(c2)CCN4C(=O)CC3)ccc1Br,inactive: 120%
14,CC(C)(C)c1ccc(C(=O)NCC(c2cccs2)S(=O)(=O)c2ccccc2)cc1 (centres undefined),inactive: 105%
15,CCc1nnc(SCc2cc(C)ccc2C)c2cc3sc(C)cc3n12,inactive: 86%
16,COc1cccc(NC(=O)CSC2=Nc3ccccc3C3=NC(CC(=O)NC4CCCCC4)C(=O)N23)c1 (centres undefined),inactive: 95%
17,CCn1cnc2sc3c(c2c1=O)CCCC3,inactive: 101%
18,CCOC(=O)c1c(C)[nH]c(C)c1S(=O)(=O)N1CCC(C(=O)N2CCN(c3ccccc3F)CC2)CC1,inactive: 89%
19,Cc1ccc(-n2c(SCc3cccc(F)c3)nc3[nH]ncc3c2=O)cc1C,inactive: 97%
20,Cc1ccc2c(c1)-c1cc(C)nn1C(c1cc(Br)ccc1O)N2 (centres undefined),inactive: 152%
21,COc1cc(OC)c(OC)cc1/C=C/c1nc2cc3ccccc3cc2c(=O)n1-c1ccc(F)cc1F,inactive: 99%
22,COc1ccc(C2CC(=O)c3cc(-c4nc(-c5ccc(Cl)cc5)c(C)s4)c(=O)[nH]c3C2)cc1 (centres undefined),active: 70%
23,COc1ccc(C2c3c(n(C)c4ccccc34)C(=O)N2CC(=O)Nc2ccc(C)c(Cl)c2)cc1 (centres undefined),inactive: 86%

row,Structure (SMILES),survival
1,CC(=O)Nc1cc(OC(C)=O)c2nonc2c1OC(C)=O,active: 29%
2,Cc1ccc(NC(=O)Cn2cc(S(=O)(=O)c3ccc(C)cc3)c(=O)c3cc4c(cc32)OCO4)cc1,inactive: 58%
3,Cc1ccc(-c2nc(SCCOc3ccccc3C)n3[nH]c(=O)cc3n2)cc1,inactive: 117%
4,CC(C)OCCCNC(=O)c1ccc2c(c1)NC(=O)c1ccccc1S2,inactive: 97%
5,CN(Cc1ccccc1)S(=O)(=O)c1ccc(NC(=O)c2ccco2)cc1,inactive: 85%
6,COC(=O)c1ccccc1NC(=O)CSc1nc2ccccc2nc1Cc1ccccc1OC,inactive: 89%
7,CCOC(=O)c1c(-c2ccc(Br)cc2)csc1NC(=O)c1ccc(F)cc1,inactive: 63%
8,O=C(CCS(=O)(=O)c1cc(Br)cc2c1N(C(=O)C1CC1)CC2)NCc1ccc(Cl)cc1,inactive: 74%
9,CN(C(=O)c1cc2nc(-c3ccco3)cc(C(F)(F)F)n2n1)c1ccc(OC(F)(F)Cl)cc1,inactive: 167%
10,CCn1c(=O)sc2cc(NS(=O)(=O)c3ccc(F)c(C)c3)ccc21,inactive: 65%
11,Cc1ccc(CSc2cn(CC(=O)N3CCCC3)c3ccccc23)cc1,inactive: 54%
12,O=C(Nc1cc(-c2nc3ccccc3o2)ccc1Cl)c1ccc(N2CCCCC2)c([N+](=O)[O-])c1,inactive: 67%
13,Cc1cccc(CN2CCC(CNC(=O)c3c(C)oc4ncnc(N5CCCCC5)c34)CC2)c1,inactive: 77%
14,CCN(C(=O)C1CCC(CNS(=O)(=O)c2cccc3nsnc23)CC1)c1ccc(C)c(C)c1 (centres undefined),inactive: 71%
15,Nc1nnc(SCc2ccccc2)s1,active: 49%
16,O=C(c1cccs1)N1CCCc2ccccc21,inactive: 82%
17,CCOC(=O)C1CCN(c2nc3c(S(=O)(=O)c4ccccc4)nnn3c3ccsc23)CC1,inactive: 71%
18,CCc1ccccc1N(CC)C(=O)c1c(C)oc2ncnc(N3CCOCC3)c12,inactive: 96%
19,Cc1ccccc1C(=O)Nc1ccc(OCc2cc(=O)n3cccc(C)c3n2)cc1,inactive: 88%
20,O=c1c2oc3ccccc3c2n(Cc2ccc(Cl)cc2)c(=O)n1Cc1ccco1,inactive: 77%
21,O=C1COc2cc(S(=O)(=O)NCc3ccco3)c(Cl)cc2N1,inactive: 98%
22,CC1=C(c2ccc(C)c(C)c2)S(=O)(=O)N=C1N1CCC(C(=O)N2CCC(C(N)=O)CC2)CC1,active: -2%
23,Fc1ccc(-c2nn(-c3ccccc3Cl)c3c2cnc2ccccc23)cc1,inactive: 89%

row,Structure (SMILES),survival
1,Cc1c(N)c(C)c(N)c(C)c1N,inactive: 96%
2,COc1ccc(-n2nc(C(=O)N3CCN(c4cccc(C)c4C)CC3)c3c4ccccc4n(C)c3c2=O)cc1Cl,inactive: 81%
3,C#CCn1cc(/C=C(/C#N)C(=O)Nc2ccccc2)c2ccccc21,inactive: 54%
4,COc1cccc(CNC(=O)Cn2ncn3nc(-c4cccs4)cc3c2=O)c1OC,inactive: 64%
5,CCC(Oc1ccccc1)C(=O)Nc1cc(-c2cccc(C)c2)nn1-c1ccccc1 (centres undefined),inactive: 83%
6,COc1ccc(-n2c(C)c(C(C)=O)c3cc(OC(=O)COc4ccccc4)ccc32)cc1,inactive: 61%
7,Cc1cccc(-c2cc3nc(C)c(C)c(N4CCC5(CC4)OCCO5)n3n2)c1,inactive: 88%
8,N#Cc1cn(CC(=O)N2CCCC2)c2ccccc12,inactive: 79%
9,Cc1cc(-c2ccc(C)c(S(=O)(=O)NCc3cccc(Br)c3)c2)on1,inactive: 97%
10,CCCS(=O)(=O)N1CC(=O)N(c2cccc(Cl)c2C)C(C)(C(=O)NC2CCCC2)C1 (centres undefined),inactive: 99%
11,Cc1cc(C)cc(OCC(=O)N(Cc2cccs2)c2ccc(Cl)cc2)c1,inactive: 61%
12,CCCCCn1c(CCNC(=O)c2ccc(F)cc2)nc2ccccc21,inactive: 68%
13,CCOCCCNC(=O)c1cnc2sc(N3CCCCC3)nn2c1=O,inactive: 75%
14,COc1ccccc1NC(=O)c1oc2ccccc2c1NC(=O)c1cccc(OC)c1OC,inactive: 72%
15,CC(C)Nc1nc(Cl)nc(NNC(=O)C(C)Oc2ccccc2)n1 (centres undefined),inactive: 93%
16,O=C(c1ccc2c(c1)N(Cc1ccc(F)cc1)C(=O)c1ccccc1S2(=O)=O)N1CCCC1,inactive: 80%
17,CCC(=O)N1CCCc2cc(S(=O)(=O)N3CCC(C(=O)NC4CCCCC4)CC3)ccc21,inactive: 116%
18,COc1ccccc1Cn1c(CNS(=O)(=O)c2ccc(C(C)C)cc2)nc2cccnc21,inactive: 101%
19,COc1ccc(CNC(=O)c2nc(SCc3ccccc3F)ncc2Cl)cc1,inactive: 81%
20,CC(NC(=O)c1ccc2c(c1)CCN2S(=O)(=O)c1ccccc1)c1ccccc1 (centres undefined),active: 37%

# From PubChem BioAssay AID463173 (ICCB-Longwood Screening Facility, Harvard Medical School, 2010)
